Measured values: the supplement of paper PMC11417369
This is one part of the list.

System: PfHDP1 homeodomain (GST-tagged)
Assay: gcPBM binding intensity (ln(normalized median fluorescence intensity)); higher = stronger DNA binding
Outline: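 An Agilent 4 × 180k array of primer-extended double-stranded 36-bp intergenic genomic probes, with negative controls, was incubated for 1 h with GST-tagged P. falciparum DNA-binding domains expressed in E. coli. Alexa488 anti-GST antibody detected bound protein, scanned at 488 nm. Binding intensity is the highest Masliner-normalised natural-log median intensity across replicate spots of either probe orientation.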

In order of falling “gcPBM binding intensity (ln)” value:
1. AAAAAATTGACTAATGCACACAATTACATATATATA [CACACA_site1689]  10.2
2. ATAAAAAAAAAAAATACACACATATATATATATATA [CACACA_site1709]  9.35
3. GTAGTACATTCTAGAATACACACCTATATATATATA [CACACA_site522]  9.04
4. ATTATAAATACACGCACACACACTTATATATATATA [CACACA_site5776]  8.95
5. ATATATATATATAATACACACATAAATGAATATATA [CACACA_site316]  8.93
6. AAGGAGAAATAAATATTAAAAAATTTATATATATAT [CACACA_negctrl_site1801]  8.74
7. TAATATTGCAAATATAAAAAAAAATAAACCATATAT [XGTACX_negctrl_site458]  7.85
8. ACAATTTTATTTAAAGTGCATGTAAAATTAAAACTT  7.44
9. AAATGCTAAAAATAGAGTACAGATAACGAAAAGTGT [XGTACX_site8830]  7.28
10. TTTATATAATATTCTACACACCAACAACAAACATAT [CACACA_site4478]  7.17
11. ACATGTGAAGGGAACATAAATTGGGGTTTTATATTG [XGTACX_negctrl_site508]  7.06
12. AATTGTTCTATGATTTGTACACACTTTTTTTTAAAA [XGTACX_site5984]  6.95
13. ACCTCATAATATTTAACACACAAAATTATCTGTATG [CACACA_site5015]  6.94
14. ATAAAAAAAAATATATGTACATATATAAATTGATAT [XGTACX_site7409]  6.94
15. ATGTAGTCTCAAGACTGTACAAACAAGTAAATAAAA [XGTACX_site4120]  6.8
16. CGTCCAAAATATCCTTCACACACGAACAGTTTCATT [CACACA_site2729]  6.79
17. TTATAGACATATATAGGTACACATATTTTCAATCCC [XGTACX_site8230]  6.79
18. AAAGGAAGAAAAAATAGTACATATATATATATATAA [XGTACX_site766]  6.78
19. TTTTTTGCTTTCAACACACATACAATCTATATAATC [CACACA_site4125]  6.77
20. CTTTTTTTTTTGTATTGTACTTTATTTTTACATCGT [XGTACX_site2918]  6.75
21. GCATTGATCAAACATACACACATGGTTAATAAAAAT [CACACA_site2085]  6.74
22. ATTTATTAATCATATACACACATATATTTGTATTTA [CACACA_site1336]  6.74
23. CTATAATATTATAACAGTACATAATATTATATATAT [XGTACX_site1414]  6.67
24. TGAAATGAAAGAACAGCACACATATATATTATATAT [CACACA_site8613]  6.66
25. TAAACCTGTAGAGATGCATGCATTGTTAACATGGTG [TGCATGCA_site515]  6.65
26. CATTATAAAAAATAAAAAAGAAATAATTGTATATGC [CACACA_negctrl_site478]  6.62
27. AAATTATAAATAATTTGTACATAAAAATTGGTAAAG [XGTACX_site5197]  6.61
28. TTCTTAAAAAATCAAACACACATATATAAATACATA [CACACA_site5301]  6.52
29. TATTTTTTTAAAATAGGTACACAATCAAACATTTAT [XGTACX_site8785]  6.51
30. ATTTTTAATTTTTTCACACATATATTTAAAATAAAA [CACACA_site4799]  6.49
31. TTTTGTTAGTTTTTTTTCTTATATTACATTTTCACG [CACACA_negctrl_site1466]  6.47
32. TTTAAATAAAAATGGAGTACTCTAAAAAAAAAAAAA [XGTACX_site1233]  6.47
33. TATATTTTTTAAAAAAGTACAAAGTAATTATTGATT [XGTACX_site2420]  6.47
34. CAATTTTTCTATCATTGTACTTTTATATAATAGTGT [XGTACX_site1810]  6.4
35. ATGAAATATATTATATGTACATATTTATTTTTTATA [XGTACX_site7319]  6.34
36. AAATAGTAAATAAGGGGTACAAAAAAAAAAAAAAAA [XGTACX_site8362]  6.3
37. ATTTTTTACGTATAGTACAAAGTTTTATGATACATA [CACACA_negctrl_site965]  6.26
38. ATTCTAATTTTATGAAACGATTATTTTGAATTCATT [XGTACX_negctrl_site578]  6.26
39. TTTTTTATATTAAATGAAGAATATACAAAATTTTAA [CACACA_negctrl_site558]  6.23
40. GTGATTTCTATGAATTGTACTTAAATATAGTTATAT [XGTACX_site231]  6.21
41. TTCTTTTTTAACAACAAAAAAAAAAAAAAAAAAAAA [TGCATGCA_negctrl_site87]  6.03
42. ATATGAAAAACTTCATGTACTTATTATAAAATATAA [XGTACX_site2725]  6.01
43. GATTACCTTTTTTTTTTTTTTTTTTTTTTTTTTTTC [CACACA_negctrl_site147]  5.86
44. GAATATAAAAAAGAATGTACTTGAACAGTCCTAAAA [XGTACX_site745]  5.83
